# The other results are listed elsewhere or left out.
# Legend:
# Experiment in all cases: glycan array binding signal (z-score within array); higher = stronger binding
# Conditions in all cases: glycan notation: IUPAC condensed, linker removed
# [1] = biological target: Neu5Ac(a2-6)Gal(b1-4)GlcNAc(b1-2)Man(a1-3)[Gal(b1-4)GlcNAc(b1-2)Man(a1-6)]Man(b1-4)GlcNAc(b1-4)GlcNAc
# In short: (§1)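 The binding signal is a Z-score computed within each array. Data were drawn from 3228 arrays in the Consortium for Functional Glycomics database, restricted to those with a known protein sequence. Scores were averaged over arrays of the same protein sequence at different concentrations or buffers, and over linkers, and negative values can be taken as non-binding.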
# [2] = biological target: Neu5Ac(a2-6)Gal(b1-4)GlcNAc(b1-2)Man(a1-3)[GlcNAc(b1-2)Man(a1-6)]Man(b1-4)GlcNAc(b1-4)GlcNAc
# In short: as §1
# [3] = biological target: Neu5Ac(a2-6)Gal(b1-4)GlcNAc(b1-2)Man(a1-3)[GlcNAc(b1-2)Man(b1-4)GlcNAc(b1-2)Man(a1-6)]Man(b1-4)GlcNAc(b1-4)GlcNAc
# In short: as §1
# [4] = biological target: Neu5Ac(a2-6)Gal(b1-4)GlcNAc(b1-2)Man(a1-3)[Man(a1-6)]Man(b1-4)GlcNAc(b1-4)GlcNAc
# In short: as §1
# [5] = biological target: Neu5Ac(a2-6)Gal(b1-4)GlcNAc(b1-2)Man(a1-3)[Neu5Ac(a2-6)Gal(b1-4)GlcNAc(b1-2)Man(a1-6)]Man(b1-4)GlcNAc(b1-4)GlcNAc
# In short: as §1
# [6] = biological target: Neu5Ac(a2-6)Gal(b1-4)GlcNAc(b1-2)Man(a1-6)Man(b1-4)GlcNAc(b1-4)GlcNAc
# In short: as §1
# [7] = biological target: Neu5Ac(a2-6)Gal(b1-4)GlcNAc(b1-2)Man(a1-6)[Gal(b1-4)GlcNAc(b1-2)Man(a1-3)]Man(b1-4)GlcNAc(b1-4)GlcNAc
# In short: as §1
# [8] = biological target: Neu5Ac(a2-6)Gal(b1-4)GlcNAc(b1-2)Man(a1-6)[GlcNAc(b1-2)Man(a1-3)]Man(b1-4)GlcNAc(b1-4)GlcNAc
# In short: as §1
# [9] = biological target: Neu5Ac(a2-6)Gal(b1-4)GlcNAc(b1-2)Man(a1-6)[Man(a1-3)]Man(b1-4)GlcNAc(b1-4)GlcNAc
# In short: as §1
# [10] = biological target: Neu5Ac(a2-6)Gal(b1-4)GlcNAc(b1-3)Gal(b1-3)GlcNAc
# In short: as §1
# [11] = biological target: Neu5Ac(a2-6)Gal(b1-4)GlcNAc(b1-3)Gal(b1-4)GlcNAc
# In short: as §1
# [12] = biological target: Neu5Ac(a2-6)Gal(b1-4)GlcNAc(b1-3)Gal(b1-4)GlcNAc(b1-3)Gal(b1-4)GlcNAc
# In short: as §1
# [13] = biological target: Neu5Ac(a2-6)Gal(b1-4)GlcNAc(b1-3)Gal(b1-4)[Fuc(a1-3)]GlcNAc(b1-3)Gal(b1-4)[Fuc(a1-3)]GlcNAc
# In short: as §1
# [14] = biological target: Neu5Ac(a2-6)Gal(b1-4)GlcNAc(b1-3)GalNAc
# In short: as §1
# [15] = biological target: Neu5Ac(a2-6)Gal(b1-4)GlcNAc6S
# In short: as §1
# Neu5Ac(a2-6)GalNAc = biological target: Neu5Ac(a2-6)GalNAc
# In short: as §1
# [16] = biological target: Neu5Ac(a2-6)GalNAc(b1-4)GlcNAc
# In short: as §1
# [17] = biological target: Neu5Ac(a2-6)GlcNAc(b1-4)GlcNAc
# In short: as §1
# [18] = biological target: Neu5Ac(a2-6)GlcNAc(b1-4)GlcNAc(b1-4)GlcNAc
# In short: as §1
# Neu5Ac(a2-8)Neu5Ac = biological target: Neu5Ac(a2-8)Neu5Ac
# In short: as §1
# [19] = biological target: Neu5Ac(a2-8)Neu5Ac(a2-3)Gal(b1-3)GalNAc(b1-4)[Neu5Ac(a2-8)Neu5Ac(a2-3)]Gal(b1-4)Glc
# In short: as §1
# [20] = biological target: Neu5Ac(a2-8)Neu5Ac(a2-3)Gal(b1-4)Glc
# In short: as §1
# [21] = biological target: Neu5Ac(a2-8)Neu5Ac(a2-3)[Gal(b1-3)GalNAc(b1-4)]Gal(b1-4)Glc
# In short: as §1
# [22] = biological target: Neu5Ac(a2-8)Neu5Ac(a2-3)[GalNAc(b1-4)]Gal(b1-4)Glc
# In short: as §1
# [23] = biological target: Neu5Ac(a2-8)Neu5Ac(a2-8)Neu5Ac
# In short: as §1
# [24] = biological target: Neu5Ac(a2-8)Neu5Ac(a2-8)Neu5Ac(a2-3)Gal(b1-4)Glc
# In short: as §1
# [25] = biological target: Neu5Ac(a2-8)Neu5Ac(a2-8)Neu5Ac(a2-3)[GalNAc(b1-4)]Gal(b1-4)Glc
# In short: as §1
# [26] = biological target: Neu5Ac(a2-8)Neu5Ac(a2-8)Neu5Ac(a2-8)Neu5Ac(a2-3)[GalNAc(b1-4)]Gal(b1-4)Glc
# In short: as §1
# [27] = biological target: Neu5Ac(b2-6)Gal(b1-4)GlcNAc
# In short: as §1
# Neu5Ac(b2-6)GalNAc = biological target: Neu5Ac(b2-6)GalNAc
# In short: as §1
# [28] = biological target: Neu5Ac9Ac(a2-3)Gal(b1-3)GlcNAc
# In short: as §1
# [29] = biological target: Neu5Ac9Ac(a2-3)Gal(b1-4)GlcNAc
# In short: as §1
# [30] = biological target: Neu5Ac9Ac(a2-6)Gal(b1-4)GlcNAc
# In short: as §1
# [31] = biological target: Neu5Gc(a2-3)Gal(b1-3)GlcNAc
# In short: as §1
# [32] = biological target: Neu5Gc(a2-3)Gal(b1-3)[Fuc(a1-4)]GlcNAc
# In short: as §1
# Neu5Gc(a2-3)Gal(b1-4)Glc = biological target: Neu5Gc(a2-3)Gal(b1-4)Glc
# In short: as §1
# [33] = biological target: Neu5Gc(a2-3)Gal(b1-4)GlcNAc
# In short: as §1
# [34] = biological target: Neu5Gc(a2-3)Gal(b1-4)[Fuc(a1-3)]GlcNAc
# In short: as §1
# [35] = biological target: Neu5Gc(a2-6)Gal(b1-4)GlcNAc
# In short: as §1
# Neu5Gc(a2-6)GalNAc = biological target: Neu5Gc(a2-6)GalNAc
# In short: as §1
# [36] = biological target: Neu5Gc(b2-6)Gal(b1-4)GlcNAc
# In short: as §1
binder,measurement,setting,value
"Eosinophil cationic protein (ECP) (Homo sapiens), P12724 (protein) MVPKLFTSQICLLLLLGLMGVEGSLHARPPQFTRAQWFAIQHISLNPPRCTIAMRAINNYRWRCKNQNTFLRTTFANVVNVCGNQSIRCPHNRTLNNCHRSRFRVPLLHCDLINPGAQNISNCTYADRPGRRFYVVACDNRDPRDSPRYPVVPVHLDTTI",glycan array binding signal (z-score),[1],-0.088
same,glycan array binding signal (z-score),[2],-0.015
same,glycan array binding signal (z-score),[3],-0.216
same,glycan array binding signal (z-score),[4],-0.018
same,glycan array binding signal (z-score),[5],0.19
same,glycan array binding signal (z-score),[6],-0.261
same,glycan array binding signal (z-score),[7],0.038
same,glycan array binding signal (z-score),[8],1.09
same,glycan array binding signal (z-score),[9],-0.157
same,glycan array binding signal (z-score),[10],-0.28
same,glycan array binding signal (z-score),[11],-0.126
same,glycan array binding signal (z-score),[12],-0.226
same,glycan array binding signal (z-score),[13],0.31
same,glycan array binding signal (z-score),[14],-0.272
same,glycan array binding signal (z-score),[15],-0.249
same,glycan array binding signal (z-score),Neu5Ac(a2-6)GalNAc,0.284
same,glycan array binding signal (z-score),[16],-0.157
same,glycan array binding signal (z-score),[17],-0.372
same,glycan array binding signal (z-score),[18],-0.481
same,glycan array binding signal (z-score),Neu5Ac(a2-8)Neu5Ac,-0.226
same,glycan array binding signal (z-score),[19],0.344
same,glycan array binding signal (z-score),[20],-0.245
same,glycan array binding signal (z-score),[21],0.054
same,glycan array binding signal (z-score),[22],0.074
same,glycan array binding signal (z-score),[23],-0.079
same,glycan array binding signal (z-score),[24],-0.48
same,glycan array binding signal (z-score),[25],-0.44
same,glycan array binding signal (z-score),[26],0.068
same,glycan array binding signal (z-score),[27],-0.433
same,glycan array binding signal (z-score),Neu5Ac(b2-6)GalNAc,-0.059
same,glycan array binding signal (z-score),[28],-0.406
same,glycan array binding signal (z-score),[29],0.112
same,glycan array binding signal (z-score),[30],-0.712
same,glycan array binding signal (z-score),[31],0.505
same,glycan array binding signal (z-score),[32],0.268
same,glycan array binding signal (z-score),Neu5Gc(a2-3)Gal(b1-4)Glc,0.028
same,glycan array binding signal (z-score),[33],-0.309
same,glycan array binding signal (z-score),[34],-0.367
same,glycan array binding signal (z-score),[35],-0.202
same,glycan array binding signal (z-score),Neu5Gc(a2-6)GalNAc,-0.003
same,glycan array binding signal (z-score),[36],0.059
